Test results taken from PubChem BioAssay AID720708 (National Center for Advancing Translational Sciences (NCATS), 2013).
Out of some 360,000 compounds screened, about 660 (0.18%) were called active. This list was built around the results that the source calls inconclusive (neither active nor inactive); the mix of calls is not that of the screen. Calls come from the whole dose curve; as a rule, active = well fitted inhibition curve with a large enough effect; inconclusive = small, poorly fitted or top-dose-only effect; inactive = no such curve, though single readings can be large or run the other way. No potency is given beside an inconclusive call; the fits are too rough.

Molecular target: Rap guanine nucleotide exchange factor 4 (Homo sapiens) (UniProt Q8WZA2)
Assay: qHTS for Antagonist of cAMP-regulated guanine nucleotide exchange factor 2 (EPAC2): primary screen; note: nearly all actives have a fitted effect of over 45% in size
Details: EPAC2 GEF exchange of Rap1B-BODIPY-GDP, fluorescence; activity, negative = inhibition: at 114 µM (top of the series) unless noted
% is set by controls: 0 for no effect and ±100 for the full control effect; potency is the fitted concentration of half-maximal effect; tags give direction and shape of the fitted curve.

UniProt Q8WZA2, sequence (Q8WZA2 whole entry, looked up): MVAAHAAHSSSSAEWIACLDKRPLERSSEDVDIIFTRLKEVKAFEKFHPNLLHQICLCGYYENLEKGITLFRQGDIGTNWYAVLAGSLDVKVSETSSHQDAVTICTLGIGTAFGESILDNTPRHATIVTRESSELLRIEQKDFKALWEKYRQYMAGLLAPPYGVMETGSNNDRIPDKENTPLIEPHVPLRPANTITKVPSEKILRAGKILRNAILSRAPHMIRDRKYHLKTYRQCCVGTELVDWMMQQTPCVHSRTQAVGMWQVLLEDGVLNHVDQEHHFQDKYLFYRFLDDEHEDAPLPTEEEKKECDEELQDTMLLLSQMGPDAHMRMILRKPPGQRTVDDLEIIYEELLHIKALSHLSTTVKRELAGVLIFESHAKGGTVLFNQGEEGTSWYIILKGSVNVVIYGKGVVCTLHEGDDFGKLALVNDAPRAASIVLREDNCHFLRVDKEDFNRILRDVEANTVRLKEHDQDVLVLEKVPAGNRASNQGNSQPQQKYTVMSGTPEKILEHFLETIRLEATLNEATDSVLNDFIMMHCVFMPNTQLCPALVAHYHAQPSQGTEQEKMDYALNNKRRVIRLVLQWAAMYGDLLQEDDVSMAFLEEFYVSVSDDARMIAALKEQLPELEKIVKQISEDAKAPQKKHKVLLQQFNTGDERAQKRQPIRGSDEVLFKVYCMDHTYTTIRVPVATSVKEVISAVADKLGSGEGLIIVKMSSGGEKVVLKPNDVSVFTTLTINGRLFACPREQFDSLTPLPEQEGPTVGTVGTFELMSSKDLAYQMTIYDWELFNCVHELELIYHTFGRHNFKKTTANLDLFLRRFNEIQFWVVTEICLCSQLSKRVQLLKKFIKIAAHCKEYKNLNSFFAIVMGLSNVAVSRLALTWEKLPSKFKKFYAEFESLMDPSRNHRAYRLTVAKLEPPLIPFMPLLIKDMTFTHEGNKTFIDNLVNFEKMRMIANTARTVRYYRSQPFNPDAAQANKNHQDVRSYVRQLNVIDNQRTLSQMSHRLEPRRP

Row | SMILES | Potency | activity, negative = inhibition
1 | O=C1OC(Cc2ccccc2)(c2ccccc2)c2ccccc21 (stereo not drawn) | inconclusive [inhibitor, partial curve] | –
2 | O=C(c1ccc(Cl)cc1)N1CCC(O)(CSc2ccc(Cl)cc2)CC1 | – | inactive: -7.71%
3 | COC(=O)C1=CN(c2c(C)cc(C)cc2C)C(N)=C(C#N)C1c1ccccc1 (stereo not drawn) | inconclusive [inhibitor, full curve] | –
4 | Cc1cccc(C)c1NC(=O)C1(C)CSCC(=O)N1Cc1ccco1 (stereo not drawn) | – | inactive: -3.7%
5 | COCCn1c(SCc2ccc(F)cc2)nc2ccccc2c1=O | inconclusive [inhibitor, partial curve] | –
6 | CC(C)(C)c1ccc(C(=O)c2cn[nH]c2-c2ccccc2O)cc1 | inconclusive [inhibitor, partial curve] | –
7 | NC(=S)NNc1ccc(Cl)c(Cl)c1 | – | inactive: -3.61%
8 | CCOC(=O)c1ccc(N2CCCCC2)c(NS(=O)(=O)c2ccc(C)cc2)c1 | inconclusive [inhibitor, full curve] | –
9 | COc1ccccc1CCn1cnc(-c2ccc(Br)cc2)c1C(C)C | inconclusive [inhibitor, partial curve] | –
10 | COc1cccc(-c2nn3c(-c4cccc(C)c4)nnc3s2)c1 | inconclusive [inhibitor, partial curve] | –
11 | COc1ccc(C)cc1NCc1ccc(OC)c(C)c1OC | inconclusive [inhibitor, full curve] | –
12 | O=C1NC(=Nc2ccccc2)S/C1=C\C=C\c1ccco1 | – | inactive: 4.28%
13 | Cc1ccccc1-c1nnn(Cc2ccc(-c3nn[nH]n3)cc2)n1 | inconclusive [inhibitor, partial curve] | –
14 | CCn1cc(-c2cc(C(=O)O)c3ccccc3n2)cn1 | – | inactive: 9.31%
15 | COC(=O)C[C@H]1C=C[C@H](NC(=O)c2ccccn2)[C@@H](CO)O1 | inconclusive [inhibitor, full curve] | –
16 | COc1ccc2c(c1)CCC1(C)CC(=O)C(Br)=C21 (stereo not drawn) | inconclusive [inhibitor, partial curve] | –
17 | Cc1ccc(Nc2nc(N)nc(CN3CCN(Cc4ccc5c(c4)OCO5)CC3)n2)cc1C | – | inactive: -0.232%
18 | CCC(C(=O)NC1CCCC1)N(Cc1ccco1)C(=O)CNS(=O)(=O)c1ccccc1 (stereo not drawn) | – | inactive: 0.165%
19 | CCC(=O)N(c1ccc(C(=O)O)cc1)c1nc(-c2ccc(OC)cc2)c(C)s1 | inconclusive [inhibitor, single point] | –
20 | CCc1ccc2[nH]c(=O)c(CN(Cc3ccc(OC)cc3)Cc3nnnn3CCOC)cc2c1 | – | inactive: -18.5%
21 | CCOC(=O)c1c2c(n(C)c1C)C(=O)C(=O)c1ccc(Br)cc1-2 | – | inactive: 15.1%
22 | CCCCOc1ccc(CONS(=O)(=O)c2ccc(NC(C)=O)cc2)cc1Cl | inconclusive [inhibitor, full curve] | –
23 | CCCNc1nc(Cl)nc(NC(C)(C)C)n1 | inconclusive [inhibitor, single point] | –

Row | SMILES | Potency | activity, negative = inhibition
24 | O=C(O)Cn1cc(/C=C2/SC(=O)N(CC(=O)N3CCCCCC3)C2=O)c2ccccc21 | inconclusive [inhibitor, full curve, poor fit] | –
25 | O=C(O)COc1ccc(Br)cc1C(c1c(C(=O)O)[nH]c2ccccc12)c1c(C(=O)O)[nH]c2ccccc12 | – | inactive: -4.91%
26 | CN(CC(=O)Nc1cccc(F)c1)C(=O)C1CCC(C(=O)N(C)CC(=O)Nc2cccc(F)c2)CC1 (stereo not drawn) | – | inactive: 0.055%
27 | COc1ccc(CNC(=O)C/C(C)=N/NC(=O)c2ccc([N+](=O)[O-])cc2Cl)cc1 | inconclusive [inhibitor, single point] | –
28 | CCCn1c(SC(C)C(=O)NCC2CCCO2)nc2cc(Cl)ccc2c1=O (stereo not drawn) | inconclusive [inhibitor, partial curve] | –
29 | NS(=O)(=O)c1ccc(NC(=O)c2cccc(N3C(=O)c4ccccc4C3=O)c2)cc1 | inconclusive [inhibitor, partial curve] | –
30 | O=C1NN(c2ccccc2)C(=O)/C1=C/c1ccc(Sc2cccc3ccccc23)o1 | – | inactive: 4.8%
31 | CCOC(=O)c1c(NC(=O)CSc2nnc(CNc3ccc(F)cc3)o2)sc(C)c1C | inconclusive [inhibitor, single point] | –
32 | O=C(Nc1ccc(Nc2ccccc2)cc1)C(Cl)Cl | – | inactive: -3.45%
33 | CCOc1cc(/C=C2\SC(=S)N(NS(=O)(=O)c3ccccc3)C2=O)ccc1O | inconclusive [inhibitor, partial curve] | –
34 | COc1cccc(-c2nc(CS(=O)(=O)CC(=O)Nc3c(C)cccc3C)c(C)o2)c1 | – | inactive: 34.9%
35 | CC1(C(=O)Nc2cnc3ccccc3c2)CCN1Cc1ccc(OC(F)(F)F)cc1 (stereo not drawn) | inconclusive [inhibitor, single point] | –
36 | Cc1cc(/C=N/n2c(COc3ccccc3C)nc3ccccc3c2=O)c(O)c([N+](=O)[O-])c1 | inconclusive [inhibitor, partial curve] | –
37 | CC(C)COc1ccc(C(=O)Nc2ccc(SC(F)F)cc2)cc1 | – | inactive: 7.18%
38 | CC(NC(=O)c1ccc(-c2ccccc2)cc1)C(c1ccccc1)N1CCOCC1 (stereo not drawn) | – | inactive: -10.3%
39 | Cc1cc(CN(Nc2ccccc2)c2ccccc2)cc(C)n1 | inconclusive [inhibitor, full curve] | –
40 | Cc1cccc(NC(=O)CN(c2ccc(C(C)C)cc2)S(=O)(=O)c2c(C)nn(C)c2C)n1 | inconclusive [inhibitor, partial curve] | –
41 | Cc1ccc(C2CC(c3cccs3)=NN2C(=O)CSc2nc3ccccc3o2)cc1 (stereo not drawn) | inconclusive [inhibitor, single point] | –
42 | COc1ccc(N(C(=O)C(C)C)S(=O)(=O)c2ccc3ccccc3c2)cc1 | inconclusive [inhibitor, full curve, poor fit] | –
43 | Cn1c(N)c(C(=O)Nc2ccc(-c3ccccc3)cc2)sc1=S | inconclusive [inhibitor, single point] | –
44 | O=c1[nH]c2ccccc2nc1Cc1ccccc1 | – | inactive: -0.449%
45 | O=C(O)Cc1ccc(C(=O)c2ccc(Cl)cc2Cl)s1 | active: 35.5 µM | –
46 | CCCCc1c(-c2ccc(F)cc2F)ncn1CCc1ccccc1OC | inconclusive [inhibitor, partial curve] | –

Row | SMILES | Potency | activity, negative = inhibition
47 | COc1ccc(OC)c(NC(=O)COC(=O)CCCN=C2NS(=O)(=O)c3ccccc32)c1 | inconclusive [inhibitor, partial curve] | –
48 | COc1ccc(N(C(=O)c2snc(C(N)=O)c2N)C(C(=O)NC2CCCCC2)c2ccc(C)o2)c(OC)c1 (stereo not drawn) | inconclusive [inhibitor, partial curve, poor fit] | –
49 | Cc1ccccc1NC(=O)COC(=O)c1ccc(CSc2ccc(Cl)cc2)cc1 | – | inactive: 25.4%
50 | COc1ccc2ccc(=O)oc2c1CC=C(C)C | inconclusive [inhibitor, partial curve] | –
51 | Cc1ccccc1C(=O)OCn1nnc2ccccc2c1=O | inconclusive [inhibitor, partial curve] | –
52 | COCc1cccc(-c2csc(C(NC(C)=O)c3ccc(F)c(F)c3)n2)c1 (stereo not drawn) | inconclusive [inhibitor, partial curve] | –
53 | Cc1cc2oc(=O)cc(CN3CCCCC3C)c2cc1Cl (stereo not drawn) | inconclusive [inhibitor, full curve] | –
54 | O=C(O)C(Cc1ccccc1)N1C(=O)/C(=C/c2cccnc2)SC1=S (stereo not drawn) | inconclusive [inhibitor, partial curve] | –
55 | COCCNc1nnc(SCC(=O)c2cc(C)n(C3CC3)c2C)s1 | inconclusive [inhibitor, full curve, poor fit] | –
56 | CC1(C)C2CCC1(C)C(NC(=O)/C=C/c1ccccc1)C2 (stereo not drawn) | inconclusive [inhibitor, single point] | –
57 | COC(=O)[C@@]1(Cc2ccc(F)cc2)[C@H]2c3cc(C(=O)N4CCCC4)n(CCc4ccccn4)c3C[C@H]2CN1C(=O)c1ccccc1 | inconclusive [inhibitor, partial curve] | –
58 | Cn1cnnc1SCC(=O)Nc1ccc2nc(SCc3ccccc3F)sc2c1 | – | inactive: -1.06%
59 | Cc1nc2sc(C(=O)Nc3ccccc3)c(N)c2c(C)c1[N+](=O)[O-] | – | inactive: 3.06%
60 | CC1(C#N)c2ccccc2C(Br)=CN1C(=O)c1ccccc1 (stereo not drawn) | inconclusive [inhibitor, partial curve] | –
61 | CC[C@@H]1C(c2ccc(F)cc2)=NN(c2ccccc2)[C@H]1C(=O)N1CCOC1=O | inconclusive [inhibitor, partial curve] | –
62 | O=c1cc(-c2ccccc2)oc2cc(O)ccc12 | – | inactive: 0%
63 | COc1cc(CC(=O)Nc2cccc(C(F)(F)F)c2)cc(OC)c1OC | inconclusive [inhibitor, single point] | –
64 | COc1ccc(OC)c(-n2c(-c3cccc(C)c3)n[nH]c2=S)c1 | inconclusive [inhibitor, single point] | –
65 | Nc1c(C(O)(C(F)(F)F)C(F)(F)F)cc(C(O)(C(F)(F)F)C(F)(F)F)c2ccccc12 | inconclusive [inhibitor, partial curve] | –
66 | CCOC(=O)N(C)c1c(CC)nc2c(OCc3ccccc3C)cccn12 | – | inactive: -7.62%
67 | CC(C)[C@H](NC(=O)NCCc1ccc(F)cc1)C(=O)O | inconclusive [inhibitor, partial curve] | –
68 | CCc1ccc([C@@H]2CC=C(C(=O)O)[C@H](c3ccc(Br)cc3)N2S(=O)(=O)c2ccc(C)cc2)cc1 | inconclusive [inhibitor, partial curve] | –
